Experimental data reported in PubChem BioAssay AID624417 (National Center for Advancing Translational Sciences (NCATS), 2012).
Among all 410,000 compounds or so, about 6,400 (1.6%) were called active. The inconclusive results got no clear call from the source; some entries with a clear call stand among them for comparison. Calls follow the shape of the dose curve; as a rule, active = well fitted inhibition curve with a large enough effect; inconclusive = small, poorly fitted or top-dose-only effect; inactive = no such curve, though single readings can be large or run the other way. Potencies of inconclusive entries are left out as doubtful fits.

Target: Glucagon-like peptide 1 receptor (Homo sapiens) (UniProt P43220)
Sequence of UniProt P43220 (P43220 whole entry, looked up): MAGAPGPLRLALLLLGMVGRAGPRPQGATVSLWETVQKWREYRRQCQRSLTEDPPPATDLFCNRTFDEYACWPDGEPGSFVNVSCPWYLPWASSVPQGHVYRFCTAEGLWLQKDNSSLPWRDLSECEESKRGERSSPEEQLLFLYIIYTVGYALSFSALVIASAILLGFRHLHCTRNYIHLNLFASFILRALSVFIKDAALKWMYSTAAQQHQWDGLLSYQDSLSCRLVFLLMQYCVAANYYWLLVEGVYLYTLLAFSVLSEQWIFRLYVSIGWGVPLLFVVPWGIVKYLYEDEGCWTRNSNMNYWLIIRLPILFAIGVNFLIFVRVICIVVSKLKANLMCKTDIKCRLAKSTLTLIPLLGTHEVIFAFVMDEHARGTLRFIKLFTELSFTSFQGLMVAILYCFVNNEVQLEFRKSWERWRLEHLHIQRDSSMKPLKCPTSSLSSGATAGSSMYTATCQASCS
Assay: qHTS of GLP-1 Receptor Inverse Agonists (Inhibition Mode); also: nearly all actives have a fitted effect of over 55% in size
Conditions: HEK293 GLP-1R CRE-luciferase, luminescence, 24 h, GLP-1R form is constitutively active; activity change, negative = inhibition: at 38.3 µM (top of the series) unless noted
Procedure, shortened: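 GLP-1R inverse agonism mode: basal reporter luminescence in engineered HEK293 cells measured after one day of compound exposure at 37 deg C, with a 12 min room-temperature detection step.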
% is scaled to controls: 0 for no effect and ±100 for the full control effect; potency is read from the fitted curve at half-maximal effect; tags tell the direction and shape of the fitted curve.

| SMILES | Potency | activity change, negative = inhibition |
| --- | --- | --- |
| C/C(NC(=O)c1ccccc1)=C1/C(=O)CC2C1C2(C)C (stereo not drawn) | inconclusive [inhibitor, single point] |  |
| CC(=O)Nc1ccc2c(c1)nc1n2CCSC1 |  | inactive: 2.05% |
| Cc1ccc(C)c(NC(=O)NC2CCCCCCC2)c1 | inconclusive [inhibitor, full curve, poor fit] |  |
| Cc1c(N=NC2=C(O)CC(C)(C)CC2=O)c(=O)n(-c2ccccc2)n1C |  | inactive: -12% |
| O=C(Nc1ccc(Br)cn1)c1cccc(S(=O)(=O)N2CCCC2)c1 | inconclusive [inhibitor, single point] |  |
| COc1ccc(-c2nc3c(C#N)c[nH]n3c2NC2CCCCC2)c(OC)c1 | inconclusive [inhibitor, single point] |  |
| CC(C)(C)c1ccc(OCC(=O)NCC(c2cccs2)N2CCOCC2)cc1 (stereo not drawn) | inconclusive [inhibitor, single point] |  |
| COc1ccc(-n2ncc(C(=O)NCc3ccccc3)c2C2CCN(C(=O)OC(C)(C)C)CC2)cc1 | inconclusive [inhibitor, partial curve, poor fit] |  |
| COc1ccc(CN2CCCC(C(=O)c3cccc(OC(C)C)c3)C2)cc1Cn1cccn1 (stereo not drawn) | inconclusive [inhibitor, partial curve, poor fit] |  |
| O=C(NCc1ccccn1)c1ccc(Cn2cc(Br)cn2)o1 |  | inactive: -0.0475% |
| COc1cc2c(cc1OC)C(C)=NC1(CCCCC1)C2 |  | inactive: 11.1% |
| COc1ccc(Nc2cc(=O)oc3ccccc23)cc1 | inconclusive [inhibitor, single point] |  |
| CCC(=O)NC(c1ccccc1)c1c(O)ccc2ccccc12 (stereo not drawn) | inconclusive [inhibitor, partial curve] |  |
| O=C(C1COc2ccccc2O1)N1CCN(c2ccc([N+](=O)[O-])cc2)CC1 (stereo not drawn) | inconclusive [inhibitor, single point] |  |
| COc1ccc(C2c3[nH]c4ccccc4c3C[C@H]3C(=O)N(CC(C)C)CC(=O)N23)c(OC)c1 (stereo partly drawn) | inconclusive [inhibitor, single point] |  |
| Cc1nn(-c2ccccc2)c(Cl)c1C(=O)Nc1nnc(C2CCCCC2)s1 | active: 8.91 µM |  |
| Cc1cc(S(=O)(=O)Cc2noc(-c3c(C)noc3C)n2)c(C)cc1Cl | inconclusive [inhibitor, single point] |  |
| CCOC(=O)c1c(C)[nH]c(N=Nc2ccccc2)c1C | active: 10 µM |  |
| O=C(NCCN1CCOCC1)c1ccc2c(c1)N(Cc1ccccc1F)C(=O)c1ccccc1S2 | inconclusive [inhibitor, single point] |  |
| N#Cc1c(N2C(=O)Nc3ccccc3N2O)sc2c1CCCCCC2 |  | inactive: -2.57% |
| Cc1c(N=C/C=C2/N(C)c3ccccc3C2(C)C)c(=O)n(-c2ccccc2)n1C | inconclusive [inhibitor, single point] |  |
| C=CCN1CCN(C(=O)c2cc3c(s2)CCCC3)CC1 |  | inactive: 1.93% |
| CCCn1c(C)cc(C(=O)CN2C(=O)NC3(CCCCCC3)C2=O)c1C | inconclusive [inhibitor, single point] |  |

| SMILES | Potency | activity change, negative = inhibition |
| --- | --- | --- |
| NC(=S)N/N=C/c1ccccc1OC(=O)c1cc2ccccc2oc1=O | inconclusive [inhibitor, partial curve, poor fit] |  |
| Cc1ccc(NC(=O)c2ccc(Cl)c(NC(=O)c3cccs3)c2)cc1 | active: 10 µM |  |
| CCCSc1ccc([C@H]2N[C@@](Cc3ccccc3)(C(=O)OC)[C@H]3C(=O)N(C)C(=O)[C@@H]23)cc1 | inconclusive [inhibitor, single point] |  |
| CNC(=O)c1cc(S(=O)(=O)N2CC(C)OC(C)C2)ccc1N1CCOCC1 (stereo not drawn) |  | inactive: 24% |
| O=C(NC1CCCC1)c1cc(-c2ccc(Cl)c(Cl)c2)on1 | inconclusive [inhibitor, single point] |  |
| O=C(NC1CCCC1)C1c2ccccc2OCC(=O)N1Cc1ccccc1 (stereo not drawn) |  | inactive: 1.36% |
| CCCCOC(=O)c1ccc(NC(=O)c2cc(Cl)c(Cl)cc2C(=O)O)cc1 | inconclusive [inhibitor, single point] |  |
| COCCNC(=O)CCc1nnc2ccc(N3CCC(C)CC3)nn12 |  | inactive: 1.92% |
| Cc1cnc(CNC(=O)C2CCC(=O)N(CCc3cccc(F)c3)C2)[nH]1 (stereo not drawn) | inconclusive [inhibitor, single point] |  |
| CCc1ccccc1NC(=O)c1nnn(-c2ccc(F)cc2)c1C | inconclusive [inhibitor, single point] |  |
| O=C(Nc1nnc(-c2ccc(F)cc2)o1)c1cc(Cl)sc1Cl |  | inactive: 17.1% |
| CN(C)c1ccc(-c2noc(C3CCN(C(=O)Nc4ccc(Cl)cc4)CC3)n2)cc1 | inconclusive [inhibitor, partial curve, poor fit] |  |
| COc1ccc(-c2cn3nc(SCC(=O)NC4CCCCC4)ccc3n2)cc1 |  | inactive: 9.79% |
| COc1ccc(-c2csc(N(CCCN(C)C)C(=O)c3ccc(Br)cc3)n2)cc1 | inconclusive [inhibitor, partial curve, poor fit] |  |
| O=C(NNc1c(Cl)cccc1Cl)c1ccno1 | inconclusive [inhibitor, full curve, poor fit] |  |
| CC1CCN(S(=O)(=O)c2ccc3c(c2)oc(=O)n3CC(=O)NCc2ccc(F)cc2)CC1 | inconclusive [inhibitor, partial curve] |  |
| COc1ccc(/C=C2\CCc3ccccc3C2=O)cc1O | inconclusive [inhibitor, full curve, poor fit] |  |
| Cc1c(Cl)cccc1-c1ccc(CNc2ccc3[nH]c(=O)[nH]c3c2)o1 |  | inactive: 3.54% |
| CN(C)c1ccc(C(C(=O)NC2CCCCC2)N(Cc2ccco2)C(=O)c2snc(C(N)=O)c2N)cc1 (stereo not drawn) | active: 2 µM |  |
| FC(F)Oc1cccc(NC(=S)N2CCN(c3ccccn3)CC2)c1 | inconclusive [inhibitor, partial curve, poor fit] |  |
| O=C(CSc1nc2ccccc2c(=O)[nH]1)c1ccc(O)c(O)c1 |  | inactive: 42.5% |
| Cc1ccc(CCNC(=O)c2cc3sccc3n2Cc2ccc(C)cc2)cc1 | inconclusive [inhibitor, partial curve, poor fit] |  |
| Clc1ccc2nc(CSc3ccccc3)cn2c1 | inconclusive [inhibitor, partial curve, poor fit] |  |

| SMILES | Potency | activity change, negative = inhibition |
| --- | --- | --- |
| COc1ccc(CC(=O)Nc2cccc(-c3csc(C)n3)c2)cc1 | inconclusive [inhibitor, single point] |  |
| Cc1ccc(CNC(=O)CN2CCN(c3ccc(F)cc3)CC2)cc1 | inconclusive [inhibitor, partial curve] |  |
| COc1ccccc1C=NNC(=O)c1ccccc1OCCOc1ccccc1 | inconclusive [inhibitor, single point] |  |
| c1ccc2nc(-c3nc4ccccc4[nH]3)ccc2c1 | active: 10 µM |  |
| COc1ccc(-n2c(C)c(C(C)=O)c3cc(OC(C)=O)ccc32)cc1 | inconclusive [inhibitor, full curve, poor fit] |  |
| Cc1c(Cl)ccc2sc(NC(=O)c3ccc(S(=O)(=O)N4CCCc5ccccc54)cc3)nc12 | inconclusive [inhibitor, partial curve] |  |
| O=S(=O)(c1ccc2ccccc2c1)N(CC(O)COCc1ccco1)c1ccccc1 (stereo not drawn) | inconclusive [inhibitor, partial curve, poor fit] |  |
| S=C(NCCc1ccccc1)NN=C1CCCCCC1 | inconclusive [inhibitor, single point] |  |
| CC(=O)N1CC2(CC(c3ccccc3F)=NO2)CN1c1ccc(Cl)cc1 (stereo not drawn) | inconclusive [inhibitor, single point] |  |
| Cc1cc(-c2n[nH]c(=S)n2/N=C/C(Br)=C/c2ccccc2)n[nH]1 | inconclusive [inhibitor, single point] |  |
| CCCOc1ccccc1OCC(=O)Nc1cc(Cl)ccc1-n1cncn1 | inconclusive [inhibitor, partial curve, poor fit] |  |
| Cc1cc(C(=O)CN2C(=O)NC(C)(c3cccc(Br)c3)C2=O)c(C)n1Cc1ccco1 (stereo not drawn) | inconclusive [inhibitor, partial curve, poor fit] |  |
| c1ccc(-c2nc(-c3ccco3)n3ccccc23)cc1 | inconclusive [inhibitor, single point] |  |
| CC(=O)N(C(C)=O)N1C(=O)/C(=C/c2ccc(Cl)cc2)SC1=S | inconclusive [inhibitor, single point] |  |
| CCOc1cc(-c2nc3ccccc3s2)ccc1O | inconclusive [inhibitor, single point] |  |
| COc1ccc(-n2ccnc(NCc3ccc(Cl)cc3)c2=O)cc1 |  | inactive: 24.3% |
| CCc1ccc(C(=O)CN2C(=O)NC3(CCCCCC3)C2=O)cc1 | inconclusive [inhibitor, full curve] |  |
| CCc1ccccc1NC(=O)CNC(=O)c1cc(C2CC2)nc2c1cnn2C(C)C | inconclusive [inhibitor, partial curve, poor fit] |  |
| O=C(CNS(=O)(=O)c1ccc(Br)s1)NCC1COc2ccccc2O1 (stereo not drawn) |  | inactive: 0% |
| Cc1ccccc1CN(C)C(C)C(=O)Nc1ccccc1F (stereo not drawn) | active: 8.91 µM |  |
| COc1ccc(NC(=O)/C=C/c2cccc(F)c2)cn1 | inconclusive [inhibitor, single point] |  |
| Cc1ccccc1CC1(CO)CCCN(Cc2ccn[nH]2)C1 (stereo not drawn) | inconclusive [inhibitor, single point] |  |
